Results as given in the supplement of paper PMC12230231.
± gives the standard deviation of the averaged measurements. Restriction of a single-cycle SIVsab GFP reporter by TRIM5α v1-loop variants in CRFK cells. Human variants: read share among cells still uninfected after two challenges over input, higher = gained restriction. Rhesus variants: share among infected cells over input, higher = lost restriction. Reporter dose not given per row. No active / inactive call per row; the paper calls a change when both replicates lie above its controls (mean + 2 SD of stop or wild-type variants, or the top frameshift score). Residues outside the varied loop are taken from Swiss-Prot. The paper reads the human single-substitution scores as noise; they and the rhesus combinations repeat poorly (rank correlation 0.3 to 0.4), indel scores repeat only for the top variants, rhesus substitutions well (0.9).

Tested on: SIVsab (simian immunodeficiency virus of sabaeus monkeys), single-cycle GFP reporter, in CRFK cells
Assay: enrichment among uninfected cells over input (fold); higher = stronger restriction
Settings: library: human / rhesus combinations
Procedure: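 Pools of CRFK cells expressing variants of the TRIM5α v1 loop were challenged with the single-cycle reporter, sorted by GFP and sequenced; mean of two replicates.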

Q: For “MASGILVNVKEEVTCPICLELLTQPLSLDCGHSFCQACLTANHKKSMLDKGESSCPVCRISYQPENIRPNRHVANIVEKLREVKLSPEGQKVDHCARHGEKLLLFCQEDGKVICWLCERSQEHRGHHTFLTEEVAREYQVKLQAALEMLRQKQQEAEELEADIREEKASWKTQIQYDKTNVLADFEQLRDILDWEESNELQNLEKEEEDILKSLTNSETEMVQQTQSLRELISDLEHRLQGSVMELLQGVDGVIKRTENVTLKKPETFPKNQRRVFRAPDLKGMLEVFRELTDVRRYWVDVTVAPNNISCAVISEDKRQVSSPKPQIIYQARGTLYPSLVNFNYCTGILGSQSITSGKHYWEVDVSKKTAWILGVCAGFQPDAMCNIEKNENYQPKYGYWVIGLEEGVKCSAFQDSSFHTPSVPFIVPLSVIICPDRVGVFLDYEACTVSFFNITNHGFLIYKFSHCSFSQPVFPYLNPRKCGVPMTLCSPSS [human TRIM5α, 330-340 = QARGTLYPSLV]”, which enrichment is on record?
A: 0.197 ± 0.28

Q: How did the enrichment turn out when “MASGILVNVKEEVTCPICLELLTQPLSLDCGHSFCQACLTANHKKSMLDKGESSCPVCRISYQPENIRPNRHVANIVEKLREVKLSPEGQKVDHCARHGEKLLLFCQEDGKVICWLCERSQEHRGHHTFLTEEVAREYQVKLQAALEMLRQKQQEAEELEADIREEKASWKTQIQYDKTNVLADFEQLRDILDWEESNELQNLEKEEEDILKSLTNSETEMVQQTQSLRELISDLEHRLQGSVMELLQGVDGVIKRTENVTLKKPETFPKNQRRVFRAPDLKGMLEVFRELTDVRRYWVDVTVAPNNISCAVISEDKRQVSSPKPQIIYQARGTRYPSLVNFNYCTGILGSQSITSGKHYWEVDVSKKTAWILGVCAGFQPDAMCNIEKNENYQPKYGYWVIGLEEGVKCSAFQDSSFHTPSVPFIVPLSVIICPDRVGVFLDYEACTVSFFNITNHGFLIYKFSHCSFSQPVFPYLNPRKCGVPMTLCSPSS [human TRIM5α, 330-340 = QARGTRYPSLV]” was run?
A: 0.2309 ± 0.0016

Q: For “MASGILVNVKEEVTCPICLELLTQPLSLDCGHSFCQACLTANHKKSMLDKGESSCPVCRISYQPENIRPNRHVANIVEKLREVKLSPEGQKVDHCARHGEKLLLFCQEDGKVICWLCERSQEHRGHHTFLTEEVAREYQVKLQAALEMLRQKQQEAEELEADIREEKASWKTQIQYDKTNVLADFEQLRDILDWEESNELQNLEKEEEDILKSLTNSETEMVQQTQSLRELISDLEHRLQGSVMELLQGVDGVIKRTENVTLKKPETFPKNQRRVFRAPDLKGMLEVFRELTDVRRYWVDVTVAPNNISCAVISEDKRQVSSPKPQIIYGAPGTRYPSFVNFNYCTGILGSQSITSGKHYWEVDVSKKTAWILGVCAGFQPDAMCNIEKNENYQPKYGYWVIGLEEGVKCSAFQDSSFHTPSVPFIVPLSVIICPDRVGVFLDYEACTVSFFNITNHGFLIYKFSHCSFSQPVFPYLNPRKCGVPMTLCSPSS [human TRIM5α, 330-340 = GAPGTRYPSFV]”, which enrichment is on record?
A: 0.276 ± 0.38

Q: How did the enrichment turn out when “MASGILVNVKEEVTCPICLELLTQPLSLDCGHSFCQACLTANHKKSMLDKGESSCPVCRISYQPENIRPNRHVANIVEKLREVKLSPEGQKVDHCARHGEKLLLFCQEDGKVICWLCERSQEHRGHHTFLTEEVAREYQVKLQAALEMLRQKQQEAEELEADIREEKASWKTQIQYDKTNVLADFEQLRDILDWEESNELQNLEKEEEDILKSLTNSETEMVQQTQSLRELISDLEHRLQGSVMELLQGVDGVIKRTENVTLKKPETFPKNQRRVFRAPDLKGMLEVFRELTDVRRYWVDVTVAPNNISCAVISEDKRQVSSPKPQIIYGARGTRYTFPTFVNFNYCTGILGSQSITSGKHYWEVDVSKKTAWILGVCAGFQPDAMCNIEKNENYQPKYGYWVIGLEEGVKCSAFQDSSFHTPSVPFIVPLSVIICPDRVGVFLDYEACTVSFFNITNHGFLIYKFSHCSFSQPVFPYLNPRKCGVPMTLCSPSS [human TRIM5α, 330-340 = GARGTRYTFPTFV]” was run?
A: 0.285 ± 0.2

Q: With “MASGILVNVKEEVTCPICLELLTQPLSLDCGHSFCQACLTANHKKSMLDKGESSCPVCRISYQPENIRPNRHVANIVEKLREVKLSPEGQKVDHCARHGEKLLLFCQEDGKVICWLCERSQEHRGHHTFLTEEVAREYQVKLQAALEMLRQKQQEAEELEADIREEKASWKTQIQYDKTNVLADFEQLRDILDWEESNELQNLEKEEEDILKSLTNSETEMVQQTQSLRELISDLEHRLQGSVMELLQGVDGVIKRTENVTLKKPETFPKNQRRVFRAPDLKGMLEVFRELTDVRRYWVDVTVAPNNISCAVISEDKRQVSSPKPQIIYQARGTLFTFPSFTNFNYCTGILGSQSITSGKHYWEVDVSKKTAWILGVCAGFQPDAMCNIEKNENYQPKYGYWVIGLEEGVKCSAFQDSSFHTPSVPFIVPLSVIICPDRVGVFLDYEACTVSFFNITNHGFLIYKFSHCSFSQPVFPYLNPRKCGVPMTLCSPSS [human TRIM5α, 330-340 = QARGTLFTFPSFT]” as the sequence, how does the enrichment read?
A: 3.82 ± 0.53

Q: With “MASGILVNVKEEVTCPICLELLTQPLSLDCGHSFCQACLTANHKKSMLDKGESSCPVCRISYQPENIRPNRHVANIVEKLREVKLSPEGQKVDHCARHGEKLLLFCQEDGKVICWLCERSQEHRGHHTFLTEEVAREYQVKLQAALEMLRQKQQEAEELEADIREEKASWKTQIQYDKTNVLADFEQLRDILDWEESNELQNLEKEEEDILKSLTNSETEMVQQTQSLRELISDLEHRLQGSVMELLQGVDGVIKRTENVTLKKPETFPKNQRRVFRAPDLKGMLEVFRELTDVRRYWVDVTVAPNNISCAVISEDKRQVSSPKPQIIYGARGTLFTFPSLVNFNYCTGILGSQSITSGKHYWEVDVSKKTAWILGVCAGFQPDAMCNIEKNENYQPKYGYWVIGLEEGVKCSAFQDSSFHTPSVPFIVPLSVIICPDRVGVFLDYEACTVSFFNITNHGFLIYKFSHCSFSQPVFPYLNPRKCGVPMTLCSPSS [human TRIM5α, 330-340 = GARGTLFTFPSLV]” as the sequence, how does the enrichment read?
A: 0.477 ± 0.21

Q: With “MASGILVNVKEEVTCPICLELLTQPLSLDCGHSFCQACLTANHKKSMLDKGESSCPVCRISYQPENIRPNRHVANIVEKLREVKLSPEGQKVDHCARHGEKLLLFCQEDGKVICWLCERSQEHRGHHTFLTEEVAREYQVKLQAALEMLRQKQQEAEELEADIREEKASWKTQIQYDKTNVLADFEQLRDILDWEESNELQNLEKEEEDILKSLTNSETEMVQQTQSLRELISDLEHRLQGSVMELLQGVDGVIKRTENVTLKKPETFPKNQRRVFRAPDLKGMLEVFRELTDVRRYWVDVTVAPNNISCAVISEDKRQVSSPKPQIIYGARGTLYTFQSLTNFNYCTGILGSQSITSGKHYWEVDVSKKTAWILGVCAGFQPDAMCNIEKNENYQPKYGYWVIGLEEGVKCSAFQDSSFHTPSVPFIVPLSVIICPDRVGVFLDYEACTVSFFNITNHGFLIYKFSHCSFSQPVFPYLNPRKCGVPMTLCSPSS [human TRIM5α, 330-340 = GARGTLYTFQSLT]” as the sequence, how does the enrichment read?
A: 0.301 ± 0.2

Q: For “MASGILVNVKEEVTCPICLELLTQPLSLDCGHSFCQACLTANHKKSMLDKGESSCPVCRISYQPENIRPNRHVANIVEKLREVKLSPEGQKVDHCARHGEKLLLFCQEDGKVICWLCERSQEHRGHHTFLTEEVAREYQVKLQAALEMLRQKQQEAEELEADIREEKASWKTQIQYDKTNVLADFEQLRDILDWEESNELQNLEKEEEDILKSLTNSETEMVQQTQSLRELISDLEHRLQGSVMELLQGVDGVIKRTENVTLKKPETFPKNQRRVFRAPDLKGMLEVFRELTDVRRYWVDVTVAPNNISCAVISEDKRQVSSPKPQIIYQAPGTLFTFQTFTNFNYCTGILGSQSITSGKHYWEVDVSKKTAWILGVCAGFQPDAMCNIEKNENYQPKYGYWVIGLEEGVKCSAFQDSSFHTPSVPFIVPLSVIICPDRVGVFLDYEACTVSFFNITNHGFLIYKFSHCSFSQPVFPYLNPRKCGVPMTLCSPSS [human TRIM5α, 330-340 = QAPGTLFTFQTFT]”, which enrichment is on record?
A: 0.205 ± 0.057

Same assay, conditions: library: insertions and deletions

Q: With “MASGILVNVKEEVTCPICLELLTQPLSLDCGHSFCQACLTANHKKSMLDKGESSCPVCRISYQPENIRPNRHVANIVEKLREVKLSPEGQKVDHCARHGEKLLLFCQEDGKVICWLCERSQEHRGHHTFLTEEVAREYQVKLQAALEMLRQKQQEAEELEADIREEKASWKTQIQYDKTNVLADFEQLRDILDWEESNELQNLEKEEEDILKSLTNSETEMVQQTQSLRELISDLEHRLQGSVMELLQGVDGVIKRTENVTLKKPETFPKNQRRVFRAPDLKGMLEVFRELTDVRRYWVDVTVAPNNISCAVISEDKRQVSSPKIYGARGTRYQTFVNFNYCTGILGSQSITSGKHYWEVDVSKKTAWILGVCAGFQPDAMCNIEKNENYQPKYGYWVIGLEEGVKCSAFQDSSFHTPSVPFIVPLSVIICPDRVGVFLDYEACTVSFFNITNHGFLIYKFSHCSFSQPVFPYLNPRKCGVPMTLCSPSS [human TRIM5α, 3-codon deletion at 325]” as the sequence, how does the enrichment read?
A: 1.16 ± 0.9

Q: “MASGILVNVKEEVTCPICLELLTQPLSLDCGHSFCQACLTANHKKSMLDKGESSCPVCRISYQPENIRPNRHVANIVEKLREVKLSPEGQKVDHCARHGEKLLLFCQEDGKVICWLCERSQEHRGHHTFLTEEVAREYQVKLQAALEMLRQKQQEAEELEADIREEKASWKTQIQYDKTNVLADFEQLRDILDWEESNELQNLEKEEEDILKSLTNSETEMVQQTQSLRELISDLEHRLQGSVMELLQGVDGVIKRTENVTLKKPETFPKNQRRVFRAPDLKGMLEVFRELTDVRRYWVDVTVAPNNISCAVISEDKRQVSSPKPQIIYGARGQTFVNFNYCTGILGSQSITSGKHYWEVDVSKKTAWILGVCAGFQPDAMCNIEKNENYQPKYGYWVIGLEEGVKCSAFQDSSFHTPSVPFIVPLSVIICPDRVGVFLDYEACTVSFFNITNHGFLIYKFSHCSFSQPVFPYLNPRKCGVPMTLCSPSS [human TRIM5α, 3-codon deletion at 334]” was tested. Which enrichment did it give?
A: 0.916 ± 0.075

Q: Which enrichment does the source give for “MASGILVNVKEEVTCPICLELLTQPLSLDCGHSFCQACLTANHKKSMLDKGESSCPVCRISYQPENIRPNRHVANIVEKLREVKLSPEGQKVDHCARHGEKLLLFCQEDGKVICWLCERSQEHRGHHTFLTEEVAREYQVKLQAALEMLRQKQQEAEELEADIREEKASWKTQIQYDKTNVLADFEQLRDILDWEESNELQNLEKEEEDILKSLTNSETEMVQQTQSLRELISDLEHRLQGSVMELLQGVDGVIKRTENVTLKKPETFPKNQRRVFRAPDLKGMLEVFRELTDVRRYWVDVTVAPNNISCAVISEDKRQVSSPKPQIIYGARGTRYQTFILGSQSITSGKHYWEVDVSKKTAWILGVCAGFQPDAMCNIEKNENYQPKYGYWVIGLEEGVKCSAFQDSSFHTPSVPFIVPLSVIICPDRVGVFLDYEACTVSFFNITNHGFLIYKFSHCSFSQPVFPYLNPRKCGVPMTLCSPSS [human TRIM5α, 8-codon deletion at 340]” here?
A: 1.15 ± 0.26

Q: How did the enrichment turn out when “MASGILVNVKEEVTCPICLELLTQPLSLDCGHSFCQACLTANHKKSMLDKGESSCPVCRISYQPENIRPNRHVANIVEKLREVKLSPEGQKVDHCARHGEKLLLFCQEDGKVICWLCERSQEHRGHHTFLTEEVAREYQVKLQAALEMLRQKQQEAEELEADIREEKASWKTQIQYDKTNVLADFEQLRDILDWEESNELQNLEKEEEDILKSLTNSETEMVQQTQSLRELISDLEHRLQGSVMELLQGVDGVIKRTENVTLKKPETFPKNQRRVFRAPDLKGMLEVFRELTDVRRYWVDVTVAPNNISCAVISEDKRQVSSPKPQIIYGARGTRYQTFVNFNYCTGCTGILGSQSITSGKHYWEVDVSKKTAWILGVCAGFQPDAMCNIEKNENYQPKYGYWVIGLEEGVKCSAFQDSSFHTPSVPFIVPLSVIICPDRVGVFLDYEACTVSFFNITNHGFLIYKFSHCSFSQPVFPYLNPRKCGVPMTLCSPSS [human TRIM5α, 3-codon duplication at 345]” was run?
A: 0.764 ± 0.13
